About 14,000 (4.5%) of roughly 310,000 compounds showed an effect of 50% or more. The effect is printed as a negative number. The list shows a part of the results.
target: human ether-à-go-go-related gene (hERG) potassium channel (human, UniProt Q12809); assay: primary screen, population patch clamp on CHO cells stably expressing hERG
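Also: peak tail current of the secondary pulse compared with the same well before compound.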

human ether-à-go-go-related gene (hERG) potassium channel, sequence (Q12809 whole entry, looked up): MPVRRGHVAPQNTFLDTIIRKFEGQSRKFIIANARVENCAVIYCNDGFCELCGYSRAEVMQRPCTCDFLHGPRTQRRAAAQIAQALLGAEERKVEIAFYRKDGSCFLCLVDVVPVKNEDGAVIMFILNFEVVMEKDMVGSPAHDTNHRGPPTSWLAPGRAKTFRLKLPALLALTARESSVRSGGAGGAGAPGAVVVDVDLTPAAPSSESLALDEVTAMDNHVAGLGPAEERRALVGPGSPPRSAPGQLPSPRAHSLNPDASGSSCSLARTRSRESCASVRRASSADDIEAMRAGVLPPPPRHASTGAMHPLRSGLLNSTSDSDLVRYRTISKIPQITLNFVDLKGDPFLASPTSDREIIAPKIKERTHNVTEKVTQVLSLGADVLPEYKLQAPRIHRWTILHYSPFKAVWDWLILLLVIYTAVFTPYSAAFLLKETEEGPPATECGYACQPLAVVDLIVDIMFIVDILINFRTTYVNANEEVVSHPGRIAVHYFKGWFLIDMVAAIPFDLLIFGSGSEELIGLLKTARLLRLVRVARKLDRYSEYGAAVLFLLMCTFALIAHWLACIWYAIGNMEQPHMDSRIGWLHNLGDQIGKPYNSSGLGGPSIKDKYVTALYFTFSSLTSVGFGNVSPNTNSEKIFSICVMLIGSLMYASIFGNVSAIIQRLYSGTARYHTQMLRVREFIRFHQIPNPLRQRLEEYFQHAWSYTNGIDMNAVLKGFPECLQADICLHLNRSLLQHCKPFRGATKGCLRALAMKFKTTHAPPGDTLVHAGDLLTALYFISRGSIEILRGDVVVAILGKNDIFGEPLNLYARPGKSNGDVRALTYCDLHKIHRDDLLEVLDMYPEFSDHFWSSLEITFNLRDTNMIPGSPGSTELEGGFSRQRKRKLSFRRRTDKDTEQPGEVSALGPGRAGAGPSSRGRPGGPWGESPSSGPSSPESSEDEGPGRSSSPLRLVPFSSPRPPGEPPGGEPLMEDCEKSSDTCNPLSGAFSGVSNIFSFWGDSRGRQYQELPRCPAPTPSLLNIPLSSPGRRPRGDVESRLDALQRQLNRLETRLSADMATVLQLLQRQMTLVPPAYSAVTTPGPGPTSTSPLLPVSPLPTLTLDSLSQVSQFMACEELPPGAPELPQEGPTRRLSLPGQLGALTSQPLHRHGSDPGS

Structure (SMILES) | hERG current change (%, negative = inhibition) at 10uM [%]
CCOC(=O)C1CCN(C(=O)c2cc3cc4ccc(OC)cc4nc3o2)CC1 | -8.52
O=C(NCCS(=O)(=O)N1CCCCCC1)c1ccc(F)cc1 | 1
O=C(CNS(=O)(=O)c1ccccc1)NCC(=O)OCc1ccc(Cl)cc1 | 13.7
COc1ccccc1C(=O)Nc1nnc(SCC(=O)NC2CCCC2)s1 | 23.9
COc1ccc(Cn2c(SCc3cc(C)ccc3C)nc3cc(OC)c(OC)cc3c2=N)cc1 | -4.93
Cc1nn(-c2ccccn2)c2c1-c1nc(N3CCOCC3)ncc1CC2 | -15
O=C(CNc1ccc(C(F)(F)F)cc1)Nc1cccc(S(=O)(=O)N2CCCC2)c1 | -5.15
COC(=O)C1=C(C(C)=O)C(c2ccc(C)cc2)n2nnnc2N1 (stereo not drawn) | -2.26
CCCCn1c(SCC(=O)N2CCCCC2)nc2cc(S(N)(=O)=O)ccc21 | -7.5
COc1cccc(NC(=S)N(CCC(C)C)C2CCN(C(C)=O)CC2)c1 | 6.13
C/C(=N\NC(=O)Cc1ccc(F)cc1)c1ccc(F)cc1 | -7.92
CCOC(=O)C(=CNc1cccc(C)n1)C(=O)OCC | -4.42
CC(=O)c1cccc(OCc2cc(C(=O)NCc3nc(C)c(C)s3)no2)c1 | 8.4
COc1ccc(S(=O)(=O)N2CCN(C(=O)c3cccc(Cl)c3)CC2)cc1 | -38.2
CCCCn1c(SCc2nc(N)nc(Nc3ccccc3C)n2)nc2ccccc2c1=O | -1.63
COc1ccc(C(c2sc3nc(C)nn3c2O)N2CCc3ccccc3C2)cc1 (stereo not drawn) | 7.26
O=C(NCCc1nc2ccccc2[nH]1)c1ccco1 | 2.94
CC(=O)C1=C(C)Nc2cc(C(F)(F)F)ccc2S1 | 7.12
CCN(CC)C(=O)CSc1nnc2nnc3cc(Cl)ccc3n12 | -6.44
Fc1ccc(CSc2nnc(CN3CCOCC3)n2-c2ccccc2)c(Cl)c1 | -24
COc1ccccc1C(C)NC(=O)C1CCN(S(=O)(=O)c2cccs2)CC1 (stereo not drawn) | -5.22
O=C(O)COc1ccc2c(c1)O/C(=C\c1ccco1)C2=O | 20

Structure (SMILES) | hERG current change (%, negative = inhibition) at 10uM [%]
CCOc1ccc(N2C(=O)/C(=C/c3ccccn3)SC2=S)cc1 | -0.388
CCn1cc(C2C(C(=O)Nc3ccc(Br)cn3)=C(C)NC3=C2C(=O)CCC3)c(C)n1 (stereo not drawn) | -3.93
CCC(=O)Nc1ccc(C(=O)Nc2ccc3c(c2)OCO3)cc1 | 16.1
O=c1oc2ccccc2c2c1C(O)CO2 (stereo not drawn) | 33.2
Cc1nc(C(=O)NNC(=O)c2c(-c3c(Cl)cccc3Cl)noc2C)cs1 | -10.7
Cc1ccc2c(Cl)c(C(=O)Nc3cccnc3)sc2c1 | 14.2
Cc1ccc(CS(=O)Cc2ccc(C(=O)N3CCN(C4CCCCC4)CC3)o2)cc1 (stereo not drawn) | 10
Cc1ccc(C)c(C(=O)c2c(C)nc3sccn23)c1 | -20.8
CCOc1ccccc1N1CCN(C(=O)c2cn(CC3CCCCC3)nn2)CC1 | -9.95
C#CCN1C(=O)C(O)(CC(=O)c2ccc(OC)c(OC)c2)c2ccccc21 (stereo not drawn) | -13.7
Cc1cc(C)n2nc(SCC(=O)N(Cc3ccccc3)C3CCS(=O)(=O)C3)nc2n1 (stereo not drawn) | 24.2
COc1cccc(C=O)c1OCCCOc1cccc2cccnc12 | -24.9
CSc1nnc(-c2ccc(C(F)(F)F)nc2C)o1 | 5.39
CCOc1ccccc1NC(=O)Cc1ccccc1OC | -12.1
CCOc1cccc(C2/C(=C(/O)c3ccc4c(c3)CC(C)O4)C(=O)C(=O)N2CCN2CCOCC2)c1 (stereo not drawn) | 14.7
O=c1c2ccccc2nc(SCc2ccccc2F)n1C1CCCC1 | 0.737
Cc1ccc(Cn2c(=O)c3ccccc3n3c(SCC(=O)N4CCCCC4C)nnc23)cc1 (stereo not drawn) | -42.4
CCOc1ccc(OCC)c(NC(=O)C2COc3ccccc3O2)c1 (stereo not drawn) | 10.7
O=C1N(c2ccccc2)C2CS(=O)(=O)CC2N1c1ccc(Cl)c(Cl)c1 (stereo not drawn) | 7.77
Cc1ccc(CNC(=O)c2ccc(N3CCC4(CC3)CC(c3ccccc3)=NO4)c(NC(=O)c3ccco3)c2)cc1 | 6.09
C=CCc1ccc(OCC(O)CO)c(OC)c1 (stereo not drawn) | 11.6
COc1ccccc1/C=C1\Cc2ccccc2C1=O | 7.73

Structure (SMILES) | hERG current change (%, negative = inhibition) at 10uM [%]
Nc1nonc1/C(=N/O)N1CCN(CCO)CC1 | 8.45
COC(=O)COc1cc2ccccc2cc1C(=O)Nc1ccccc1 | 0.225
Cc1ccc(Cn2ccc(NC(=O)c3cc(C)on3)n2)cc1 | 5.54
CCc1nnc(N/N=C/c2ccc(O)c(OC)c2)n1N | 29.9
Cc1ccc2oc(=O)c3cc(C(=O)NCCCN4CCN(C)CC4)sc3c2c1 | -5.62
COc1ccc(C(=O)Nc2ccccc2C(=O)Nc2cccnc2)cc1 | -16
COc1ccc(/C=C/c2c([N+](=O)[O-])c(=O)n(C)c(=O)n2C)cc1O | -5.4
O=C(CCN1C(=O)/C(=C/c2ccccc2Cl)SC1=S)NC1=NCCS1 | 9.76
Cc1ccc(CNC(=O)CN2C(=O)CSc3ccc(S(=O)(=O)N4CCC(C)CC4)cc32)cc1 | -27.4
Cc1ccc(C2=NOC(=O)/C2=C\c2ccc(C)o2)cc1 | 6.75
CC(=O)c1ccc(NC(=O)C2CCCN2S(=O)(=O)c2ccc(F)cc2)cc1 (stereo not drawn) | -16.6
Cc1ccc(NC(=O)C2C3CCCC2C3c2ccccc2)c(C)c1 (stereo not drawn) | 9.74
CN1CCN(c2ccccc2NC(=O)c2cc3c(s2)-c2ccccc2OC3)CC1 | -51.3
COc1ccc(C(CNC(=O)c2ccc(S(=O)(=O)Nc3ccccc3C)cc2)N2CCOCC2)cc1 (stereo not drawn) | -23.2
COC(=O)c1cc(/C=C/c2ccccc2)[nH]n1 | -19.2
COc1ccc(C(=O)N=C2SC3CS(=O)(=O)CC3N2Cc2ccc(OC)c(OC)c2)cc1 (stereo not drawn) | -7.39
Cc1cc(C)n(-c2ccc(C(=O)Nc3nnc(C4CC4)s3)cc2)n1 | -3.27
CC(=O)Nc1ccccc1C(=O)N1CCN(Cc2ccc3c(c2)OCO3)CC1 | 8.13
COCCC(=O)N1CCC(Oc2ccc(C(=O)NCc3csc(C)n3)cc2)CC1 | 12.6
CCO.Nc1nc(N)c2cc(Sc3ccc4ccccc4c3)ccc2n1 | -24.4
COc1ccc(-n2c(=S)[nH]c3cc(C(=O)NCCCN4CCOCC4)ccc3c2=O)cc1OC | 25.7
CC(CCc1ccccc1)NC(=O)CCNC(=O)Cn1ccc2ccccc2c1=O (stereo not drawn) | 18.5

Structure (SMILES) | hERG current change (%, negative = inhibition) at 10uM [%]
COc1ccccc1CNC(=O)[C@H](C)NC(=O)C1CCN(C(=O)[C@@H](N)CC(C)C)CC1 | -1.07
CCN1C[C@]2(COC)CC[C@H](OC)[C@@]34C5C[C@H]6C(=O)C5[C@](O)(C[C@H]6OC)[C@@](O)(C(OC)C23)[C@@H]14 (stereo partly drawn) | 8.94
CCc1ccc(N(C2C=CS(=O)(=O)C2)S(=O)(=O)c2ccc(C)cc2)cc1 (stereo not drawn) | -19.1
Cc1ccc(Cn2c(C(C)Nc3nc(-c4ccc(F)cc4)cs3)nc3cc(Cl)c(Cl)cc32)cc1 (stereo not drawn) | 10.3
FC(F)(F)c1cccc(NC(=S)N2CCN(c3ccccn3)CC2)c1 | 12.3
COc1ccc(NC(=S)N2CCC(C(O)(c3ccccc3)c3ccccc3)CC2)cc1 | 3.75
COC(=O)c1cc2c(C)nn(C)c2s1 | -4.74
Cc1ccc2c(c1)N(C(=O)CCC(=O)NCCCN1CCN(C)CC1)CCO2 | -5.06
COc1cc(C2NC(=S)NC(c3ccccc3)=C2C(C)=O)ccc1O (stereo not drawn) | 15.4
O=Cc1ccc(OCc2ccc3c(c2)OCO3)cc1 | 14.9
Cn1nc(C(=O)NCCCN2CCCCC2)c2c1-c1ccccc1S(=O)(=O)C2 | -0.878
COCCN=C1NC(=O)C(CC(=O)Nc2cccc(Cl)c2C)S1 (stereo not drawn) | 6.67
Cc1cc(=O)oc2cc(OCC3CC(c4ccc(Cl)cc4)=NO3)ccc12 (stereo not drawn) | -2.25
CCC(CC)c1nnc(NC(=O)CS(=O)(=O)c2ccccc2)s1 | 4.38
O=C(NCCc1ccccc1)c1cccc(Br)c1 | 2.53
O=[N+]([O-])c1ccc(NCc2ccccc2)c2nonc12 | 19.7
Cc1csc2nc(SCC(=O)N3CCN(c4ccccc4)CC3)[nH]c(=O)c12 | 1.04
CCCOC(=O)c1ccc(Oc2c(-c3ccc(OCC)cc3O)n[nH]c2C)cc1 | 19.3
COc1ccccc1CCNC(=O)Cn1c(=O)oc2ccccc21 | 11.8
COc1ccc(CNC(=O)C[C@H]2C(=O)N(Cc3ccc(OC)cc3)C[C@@H]2Cc2ccccc2)cc1 | -45.9
CCOC(=O)C1CCCN(C(=O)Cc2ccc(Cl)cc2)C1 (stereo not drawn) | 6.9

— article PMC4336329 (PLoS ONE, 2015)
